Experimental data as given in the supplement of paper PMC11417369.
± gives the standard deviation of the averaged measurements. Some of the results follow.

Tested on: PfAP2-I AP2 domain 3 (GST-tagged)
Experiment: gcPBM binding intensity (ln(normalized median fluorescence intensity)); higher = stronger DNA binding
How it was run: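 In this array assay, P. falciparum DNA-binding domains with a GST tag, expressed in E. coli, were applied for 1 h to primer-extended double-stranded 36-bp intergenic genomic probes and negative controls on an Agilent 4 × 180k array. Bound protein was visualised with Alexa488 anti-GST antibody at 488 nm. Binding intensity is the highest Masliner-normalised natural-log median intensity across replicate spots of either probe orientation.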

| Sequence | gcPBM binding intensity (ln) |
| --- | --- |
| GGGACAGGACGAAAAAATAAATAAATAAATAAAAAA [CACACA_negctrl_site155] | 7.99 ± 0.44 |
| ACAAGATCTAGATACACACACATATCTCTCAATCTA [CACACA_site6453] | 7.88 ± 0.79 |
| TTTTTATTTATATATATATATATATATTATATATAA [CACACA_negctrl_site1654] | 7.68 ± 0.53 |
| ATCTAAATAATATATATATATAATATTAATAATATA [CACACA_negctrl_site1620] | 7.44 ± 0.44 |
| ATATATTATATAATATGTACATAATAAAATTTAAAT [XGTACX_site1900] | 7.82 ± 0.4 |
| CTTGTCATTGGGCACACACACATGTATAGGTTATTA [CACACA_site3058] | 8.54 ± 0.45 |
| GAGTAAACATATATATGTACATAAAGTTAACATTGC [XGTACX_site2225] | 8 ± 0.47 |
| ATTTTTTTTCATATAACACACACACTAATATAATGT [CACACA_site9226] | 8.22 ± 0.4 |
| TGAACACCCACAAATACACACAAAAAAAATAAATAA [CACACA_site248] | 7.86 ± 0.43 |
| AATCAAAAATCAAACGCATGTAGTATAATAGATAAG [TGCATGCA_site753] | 7.81 ± 0.71 |
| CAAATATAAATATATACATGCATCTATCTATATAAA [TGCATGCA_site369] | 8.28 ± 0.5 |
| AAATTGTAGCACCAAGCATGCTAAAAGGACATATGA [TGCATGCA_site717] | 9.67 ± 0.11 |
| ATTGGGTACAAATACACACACATATATATATTAATA [CACACA_site2376] | 8.09 ± 0.2 |
| TGTACCTTATTAATATATTTAACTCGCCTTATATAC [XGTACX_negctrl_site289] | 7.87 ± 0.74 |
| TCGTAAACATATTGAAAAATATAAAAAGGGGTAATA [CACACA_negctrl_site619] | 7.84 ± 0.45 |
| TTGTTAAAAGTATCCATTCTTTATTACTTTTGTTTA [XGTACX_negctrl_site532] | 7.46 ± 0.6 |
| AAATAAATACACATATGTACATATTTTATTTTATTT [XGTACX_site2357] | 7.7 ± 0.52 |
| TAAAAAAAATACAAAAGTACACAAAATTATACGTTA [XGTACX_site4656] | 7.71 ± 0.39 |
| AATGGTATAATCAATACACACATAATATATATATTG [CACACA_site1658] | 7.61 ± 0.47 |
| TTAAGATATGTATATCGTACATGACATTAAAAATTT [XGTACX_site3352] | 7.54 ± 0.55 |
| AAAAAAAAAAATATCACACACACATAAATATAAACC [CACACA_site2278] | 8.27 ± 0.46 |
| AAATTATATCAATGTTGTACATATTATTTTTTTCTC [XGTACX_site5948] | 7.85 ± 0.48 |

| Sequence | gcPBM binding intensity (ln) |
| --- | --- |
| AAAAAAAAAAAAAGGTGTACAAGTATAATTACATAA [XGTACX_site534] | 8.07 ± 0.38 |
| TATTTATTGTGATACTTTTATTGTTTAATGATTAAA [CACACA_negctrl_site495] | 7.47 ± 0.45 |
| TAGTATAAAATTATGTGTACACAAATATAACTTTTC [XGTACX_site5971] | 8.52 ± 0.47 |
| AAGATTAAAAATTGCACACAAAAATATATTTTCTAT [CACACA_site1305] | 8.44 ± 0.42 |
| AATTTCCTTTTTTAAAGTACACAAAAGTTCACTTTG [XGTACX_site4460] | 7.82 ± 0.67 |
| AAATTATATCATTTATTTTTTTATATTTTTTATATT [CACACA_negctrl_site685] | 7.42 ± 0.69 |
| TATAATTTATTAAGGGGTACATATATTTCATGATAA [XGTACX_site5141] | 7.88 ± 0.37 |
| TTATTCATTTTTATTTGTACATAATTATATGAAATT [XGTACX_site6389] | 7.71 ± 0.57 |
| TTTTATATTTTATGCACACTTATAAGAAATATGTAC [CACACA_site3040] | 10.5 ± 0.52 |
| TTATGTATTCATTTTTTTTAAGCACCCCAAAATGAT [CACACA_negctrl_site1344] | 10.5 ± 0.62 |
| ATAATATATATATAAACACACAAAAAAAATTATATA [CACACA_site1534] | 7.78 ± 0.38 |
| TATTTATTAAAACACACACACACACCCACAAAATAA [CACACA_site241] | 8.41 ± 0.099 |
| ATTTTTTTTTATGATACACACTTGGATAATTAAAAC [CACACA_site4473] | 7.85 ± 0.58 |
| CCACATGATATGATTACACACATATATATATTTACA [CACACA_site164] | 7.87 ± 0.57 |
| ATTCTATTATAATACACACCCAAATATTAAAAAGAT [CACACA_site2960] | 8.69 ± 0.26 |
| GATGTTGCAAAATTCTGTACATATAAATGTATACAT [XGTACX_site5009] | 8.18 ± 0.49 |
| TATTATATATATATATGTACATATATATGCTAAAAA [XGTACX_site5297] | 7.89 ± 0.59 |
| TAATGAATTTAAATTTTAAAATTAATAAAAAAAATA [TGCATGCA_negctrl_site15] | 7.55 ± 0.59 |
| CAAAATGTTTCTCATTGTACACAAAATAAATGTCCT [XGTACX_site6798] | 7.76 ± 0.46 |
| ATTAGTAAATTTATATGTACACATTGTTATTTTATA [XGTACX_site1177] | 8.13 ± 0.23 |
| ACATTTACAAGGAAAGTGCATATAAGAAAAATAAAA [GTGCAC_site9587] | 10.2 ± 0.11 |
| ATACATATGTATATTTGTACATATTAGACAATCTTA [XGTACX_site6706] | 7.44 ± 0.41 |

| Sequence | gcPBM binding intensity (ln) |
| --- | --- |
| GTAACATTTTAAATATATACATATAATGTATTTATA [GTGCAC_negctrl_site344] | 7.48 ± 0.37 |
| ATTAAACCGTGGGAGCACACACACACACACACACAT [TGCATGCA_negctrl_site72] | 8.61 ± 0.35 |
| TGTTGTATCAATTTTTGTACATAACACATATGTATA [XGTACX_site3666] | 7.73 ± 0.45 |
| ATTAATTAAAAGGGAACACATAGAAATTATAAAACA [GTGCAC_negctrl_site420] | 7.93 ± 0.75 |
| ATATATATATTATGGGGTACAAACATCAAAAGATTT [XGTACX_site3944] | 8.88 ± 0.23 |
| TGTGTAGGGGATATTCTACTTTAAAAATAAATATAT [CACACA_negctrl_site207] | 8.16 ± 0.28 |
| TATAAAAGATTGGAATGTACATAAGAAAAAAATATA [XGTACX_site5028] | 8.2 ± 0.4 |
| GGCCCAACTTCTTCTGACGAAAACGTAAATTGTGTG [XGTACX_negctrl_site533] | 7.61 ± 0.86 |
| AATCATATTAGTATGGTGCAACATATATAAATATAT | 10.2 ± 0.31 |
| TTCAAGATTTATTATACACACATATTAATATTTATA [CACACA_site6413] | 7.96 ± 0.42 |
| ACACATATATTAAATGTGCACTGAAATATGCATATA [GTGCAC_site9936] | 10.065 ± 0.007 |
| ACTTGTAAGAGACACACACACACACGGATATAAATA [CACACA_site6517] | 7.98 ± 0.58 |
| TTATTTTCCCTTTGTGCATGCAGTTTACTTTTTGTG [TGCATGCA_site993] | 9.26 ± 0.77 |
| ATATATGTATATTTATGTACGTATTCCTGTATAGTC [XGTACX_site5763] | 8.04 ± 0.36 |
| CAAAATAAAAATAACACACACATTTATTTATATACA [CACACA_site6679] | 7.58 ± 0.36 |
| ACACAAGCACACAAATGTACATATATATATATATAT [XGTACX_site5146] | 9.55 ± 0.73 |
| GGAAAAAAAAATAAATGTACGAATTAACATATCAAA [XGTACX_site5653] | 7.54 ± 0.79 |
| ATGGAAGGATAATAAAAACCTTTACCTTTCTGTTTA [GTGCAC_negctrl_site380] | 7.42 ± 0.76 |
| ATAATGAAAACAAGCACACATACATAAAATAAAATA [CACACA_site3257] | 7.95 ± 0.6 |
| ATAAATTTTTAAACAGCACACATAAATATAATATAT [CACACA_site8691] | 8.28 ± 0.4 |
| AATATTACAATTTGGTGTACAGGTGCACATGCCTCA [XGTACX_site1730] | 10.6 ± 0.33 |
| TAGCTTATAAGATATGCACACACAACACTTACAAAA [CACACA_site8174] | 8.62 ± 0.15 |

| Sequence | gcPBM binding intensity (ln) |
| --- | --- |
| TCTACAATTTTAATTACACACTATAAAAAAGAAAGA [CACACA_site5624] | 7.92 ± 0.48 |
| TTTAAAATTATAAGGATTAAAAAAAAAAAAAATAAA [CACACA_negctrl_site114] | 7.5 ± 0.43 |
| AACAAATAAAAAAAAATAAAAATAAAAATAAAAAAA [XGTACX_negctrl_site451] | 7.5 ± 0.49 |
| AAGAATTATATTAATAGTACATATATATTAATTTAT [XGTACX_site5713] | 7.55 ± 0.38 |
| TTATTTATGAAGTATACACACAATATAGATTTATAT [CACACA_site6703] | 7.55 ± 0.67 |
| TTTTGTTATTATAAATAGTAACATTTGTGAATATAT [TGCATGCA_negctrl_site132] | 7.58 ± 0.5 |
| AAGACATTTTTTTGTTGTACGTCTTCATTTATTGTA [XGTACX_site2890] | 8.03 ± 0.55 |
| TATTAATATGGTAATACACACTAATATACTTTTGTT [CACACA_site6860] | 7.72 ± 0.64 |
| ATATATATATATATATGTACGTATTCATAAACAACA [XGTACX_site4282] | 9.4 ± 0.31 |
| CTGTAAAAAATATAAACACACATAGAGATATATAAA [CACACA_site6292] | 7.8 ± 0.57 |
| TTTAATGTTACTCCTTGTACACAAAATAGTGTTATA [XGTACX_site8416] | 7.97 ± 0.43 |
| TAAGTATATTTTATATGTACTTATATATTTAATTTT [XGTACX_site4615] | 7.37 ± 0.23 |
| ATAGGTTCCCAAAATGCACACCAATGAAATTATTTA [CACACA_site8081] | 9.05 ± 0.014 |
| CAAGCTTTTTCCTTTACACACATTAGTTATTTATAT [CACACA_site6781] | 8.16 ± 0.57 |
| ATATTATTTTAAAGTACACACATATATTAAGATATA [CACACA_site5306] | 8.05 ± 0.31 |
| TTAATATATTATCTGGTGCATAAACACGTTATACCT | 11.3 ± 0.64 |
| CAGTATTACATGAGGACACACACAAAAAAAATATAT [CACACA_site8156] | 8.09 ± 0.47 |
| ATGATTTCACAAGACACACACATACAAATTTATATA [CACACA_site3909] | 8.19 ± 0.52 |
| TATTTTATATTTTATGCACACTTATAAGAAATATGT [CACACA_site5647] | 10 ± 0.27 |
| ACTGTACTATAAAATACACACATATAAATATAAATA [CACACA_site3009] | 8.23 ± 0.16 |
| TATTTTAGAGAAAAAAATAAATTACAAAATGTTAGG [CACACA_negctrl_site1645] | 7.61 ± 0.68 |
